Results on 59 molecules are retold here after PubChem BioAssay AID493035 (The Scripps Research Institute Molecular Screening Center, 2011).

The inhibition is the change of the read-out against control, counted positive when it falls.

Several values for one entry are separate records, joined by “and”; a condition that tells them apart may be missing. Identical values can stand only once. The whole screen tested about 2,000 compounds, of which about 45 (2%) were called active.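 How the source made its calls: active means inhibition above the mean of all tested compounds plus 3 SD (cut at about 49% in these data); inactive means the rest.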 The list shows a part of the results.

For this assay, the target named is Perilipin-5 (Homo sapiens) + 1-acylglycerol-3-phosphate O-acyltransferase ABHD5 (Homo sapiens) (UniProt Q00G26+Q8WTS1). As to the kind of experiment: blockers of ABHD5 binding to perilipin-5 – cell lysate, split luciferase complementation, luminescence, NIH validation set, pilot screen (AID 493035).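 Further: 0% = DMSO only wells while the 100% control is not stated.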 The settings on record: split G. princeps luciferase complementation, lysates, 4 h; at 7.9 µM, hits give high values.
UniProt Q00G26, sequence (Q00G26 whole entry, looked up): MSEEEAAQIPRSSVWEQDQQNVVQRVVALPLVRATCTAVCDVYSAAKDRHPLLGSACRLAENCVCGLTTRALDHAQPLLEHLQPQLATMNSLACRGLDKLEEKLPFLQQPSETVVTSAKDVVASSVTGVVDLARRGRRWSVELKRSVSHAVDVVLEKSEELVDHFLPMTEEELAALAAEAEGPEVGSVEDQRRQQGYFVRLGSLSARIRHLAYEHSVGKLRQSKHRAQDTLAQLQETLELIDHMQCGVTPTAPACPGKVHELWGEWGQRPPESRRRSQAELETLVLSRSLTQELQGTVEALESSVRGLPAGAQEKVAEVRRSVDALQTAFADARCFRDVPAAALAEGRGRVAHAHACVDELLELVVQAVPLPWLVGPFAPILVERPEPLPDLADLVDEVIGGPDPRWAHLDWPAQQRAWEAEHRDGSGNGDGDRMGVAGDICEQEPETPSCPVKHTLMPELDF
UniProt Q00G26, sequence (Q8WTS1 whole entry, looked up): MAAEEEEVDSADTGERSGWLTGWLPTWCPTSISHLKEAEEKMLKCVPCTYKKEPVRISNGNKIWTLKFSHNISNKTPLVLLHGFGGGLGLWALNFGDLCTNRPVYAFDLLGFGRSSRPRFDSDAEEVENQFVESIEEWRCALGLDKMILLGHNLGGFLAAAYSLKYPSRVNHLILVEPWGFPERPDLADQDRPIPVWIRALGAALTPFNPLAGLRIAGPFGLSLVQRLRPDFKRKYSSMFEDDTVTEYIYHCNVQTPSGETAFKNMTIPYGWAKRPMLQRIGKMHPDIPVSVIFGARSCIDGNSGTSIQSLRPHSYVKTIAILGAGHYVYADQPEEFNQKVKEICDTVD
Turning to `C[C@]12CC[C@@H]3c4ccc(O)cc4CC[C@H]3[C@@H]1CC[C@@H]2OC(=O)CCC(=O)O`, the inhibition was inactive: 6.35%.

Take `CCO/C([O-])=N/c1c[n+](N2CCOCC2)no1`: the inhibition was inactive: -7.79%.

Take `COc1ccc(CCNc2ncnc3c2[nH]c2cc(OC)c(OC)cc23)cc1OC`: the inhibition was inactive: 9.07%.

In the case of `O=C1C(=O)c2ccccc2C(O)=C1c1ccccc1F`, the inhibition is inactive: 2.39%.

As for `COCCOC(=O)c1c(C)oc2ccc(OCc3cc(C(=O)OC)oc3C)cc12`, the inhibition is inactive: -8.93%.

As to `COc1cc(C(=O)NCCCCCC(=O)O)cc(OC)c1OC`, the inhibition is inactive: -0.03%.

For `COc1cc(OC)c(C2C(C#N)=C(N)OC3=C2C(=O)CC(C)(C)C3)cc1OC` (centres undefined), the inhibition was inactive: 1.89%.

Take `Cc1[nH]c2ccccc2c1/C=C/c1nc2ccccc2c(=O)n1CCO`: the inhibition is inactive: 8.95%.

With `CC1=C(/C=C/C(C)=C/C=C/C(C)=C/C(=O)O)C(C)(C)CCC1`, the inhibition was inactive: 13.8%.

Consider `O=C(Nc1ccccc1)c1ccccc1CCc1ccccc1`, for which the inhibition is inactive: -5.47%.

As for `Cc1ccc(CN2CCN(CCCc3ccccc3)CC2CCO)cc1` (centres undefined), the inhibition is inactive: -2.89%.

For `CCN(Cc1cnn(C)c1)Cc1nc(C(c2ccccc2)c2ccccc2)no1`, the inhibition was inactive: 1.77%.

In the case of `CCCCCC#CCC#CCC#CCC#CCCCC(=O)O`, the inhibition is inactive: 38.3%.

Turning to `Cc1cc(=O)oc2cc(OC(C)C(=O)NCC3CCCO3)ccc12` (centres undefined), the inhibition was inactive: 2.43%.

With `O=C(/C=C/c1ccco1)N1CCN(c2ccccc2)CC1`, the inhibition was inactive: 2.96%.

Regarding `O=C(O)/C=C/c1ccc(O)c(O)c1`, the inhibition was inactive: -1.05%.

Regarding `O=C(Nc1ccc(Cl)cn1)Nc1ccccc1Cl`, the inhibition was inactive: -9.93%.

For the molecule `C[N+](C)(C)CCCCCCCCCC[N+](C)(C)C`, the inhibition was inactive: -1.24%.

As for `COc1ccc(C(=O)Oc2ccc3c(C)cc(=O)oc3c2C(C)=O)cc1`, the inhibition is inactive: 2.94%.

`NS(=O)(=O)c1ccc(CNC(=O)c2cc(-c3ccccc3)nc3ccccc23)cc1`: the inhibition was inactive: 8.72%.

Consider `O=C(O)C1Sc2[nH]c(=O)sc2C2c3ccc(O)cc3OC(=O)C12` (centres undefined), for which the inhibition is inactive: 3.48%.

Consider `Fc1ccc(NC(=S)Nc2ccccc2Cl)cc1`, for which the inhibition is inactive: 2.3%.

With `CC(=O)OC[C@H]1O[C@@H](n2ncc(=O)[nH]c2=O)[C@H](OC(C)=O)[C@@H]1OC(C)=O`, the inhibition was inactive: 3.32%.

Take `CN1C(=O)C(O)(CC(=O)c2ccccc2O)c2cc(Br)ccc21` (centres undefined): the inhibition was inactive: 0.19%.

Take `COc1ccc(C2NC(=O)c3ccccc3N2)cc1OC` (centres undefined): the inhibition was inactive: -4.79%.

With `COc1cc2c(cc1OC)C(=S)NC(C)(C)C2`, the inhibition is inactive: 11.8%.

Consider `CN(C)CCN(Cc1ccccc1)c1ccccn1`, for which the inhibition was inactive: -6.09%.

On to `CC1(C)C(=O)OC(c2cccs2)C2(CCCCC2)C1=O` (centres undefined), for which the inhibition is inactive: 0.74%.

On to `CC(NC(=O)c1ccc(N2CCNCC2)c([N+](=O)[O-])c1)C12CC3CC(CC(C3)C1)C2` (centres undefined), for which the inhibition was inactive: -7.51%.

Regarding `Cn1c(=O)oc2cc(S(=O)(=O)N3CCc4ccccc4C3)ccc21`, the inhibition is inactive: -0.05%.

For the molecule `CC(NC(=O)OCc1ccccc1)C(=O)N1CC(O)CC1C(=O)O` (centres undefined), the inhibition is inactive: -6.28%.

In the case of `O=C(/C=C/c1ccco1)NCc1ccc2c(c1)OCO2`, the inhibition is inactive: 14.1%.

Regarding `CC1=CC(C)(C)N2C(=O)C3(NCCc4c3[nH]c3ccccc43)c3cc(C)cc1c32` (centres undefined), the inhibition was inactive: -1.07%.

As for `COc1ccc(CC(=O)N2CC3(C)CC2CC(C)(C)C3)cc1OC` (centres undefined), the inhibition was inactive: -11.3%.

Take `O=c1cnn([C@@H]2O[C@H](CO)[C@@H](O)[C@H]2O)c(=O)[nH]1`: the inhibition is inactive: -4.2%.

For the molecule `C=CCN1C(=O)c2oc3ccccc3c(=O)c2C1c1ccc(O)c(OC)c1` (centres undefined), the inhibition was inactive: 5.16%.

Turning to `COc1cccc2c(=O)c3ccccc3oc12`, the inhibition was inactive: -15.8%.

Take `CN1CCc2cccc3c2[C@@H]1Cc1ccc(O)c(O)c1-3`: the inhibition is inactive: 27.2%.

For the molecule `CN(C)CCOC(c1ccccc1)c1ccccc1`, the inhibition was inactive: -7.17%.

`O=C(NCc1ccco1)/C(=C\C=C\c1ccccc1)NC(=O)c1ccccc1Br`: the inhibition was inactive: 17.3%.

Regarding `COc1ccc(S(N)(=O)=O)cc1C(N)=O`, the inhibition is inactive: 0.13%.

On to `CC(=O)N1CCN(c2ccc(OC[C@H]3CO[C@](Cn4ccnc4)(c4ccc(Cl)cc4Cl)O3)cc2)CC1`, for which the inhibition was inactive: 16.2%.

Regarding `CO[C@@H]1O[C@@H]2COC(c3ccccc3)O[C@@H]2[C@@H](OC)[C@@H]1O` (some centres undefined), the inhibition was inactive: 0.93%.

For `CC(=O)[C@H]1CC[C@H]2[C@@H]3CCC4=CC(=O)CC[C@]4(C)[C@H]3CC[C@]12C`, the inhibition is inactive: -6.5%.

Regarding `Cc1ccc2[nH]c3c(=O)n(CCc4cnc[nH]4)cnc3c2c1`, the inhibition is inactive: 5.31%.

As for `COC(=O)C1=CN(Cc2cccs2)C=C(C(=O)OC)C1c1cccc(Cl)c1`, the inhibition was inactive: 11.4%.

With `CC(C)NC[C@@H](O)c1ccc(O)c(O)c1`, the inhibition was inactive: -7.49%.

In the case of `C[C@]12CC[C@@H]3c4ccc(O)cc4CC[C@H]3[C@@H]1CC[C@@H]2O`, the inhibition was inactive: -0.69%.

For `COc1cccc(OC)c1C(=O)Nc1nc2ccc([N+](=O)[O-])cc2s1`, the inhibition was inactive: -1.63%.

On to `CCC[C@@H]1C[C@@H](C(=O)N[C@H]([C@@H](C)O)[C@H]2O[C@H](SC)[C@H](O)[C@@H](O)C2O)N(C)C1` (some centres undefined), for which the inhibition is inactive: -8.98%.

For the molecule `CCCN(CCC)S(=O)(=O)c1ccc(C(=O)O)cc1`, the inhibition was inactive: 2.31%.

For the molecule `COc1ccc(C2NC(C(=O)O)Cc3c2[nH]c2ccccc32)cc1CN1CCN(c2ccc(F)cc2)CC1` (centres undefined), the inhibition is inactive: 5.31%.

Consider `CSCCC1NC2(C(=O)Nc3ccc(Cl)cc32)[C@@H]2C(=O)N(C3CCCC3)C(=O)[C@H]12` (some centres undefined), for which the inhibition is inactive: -0.95%.

Consider `CN1C2CCC1CC(OC(c1ccccc1)c1ccccc1)C2` (centres undefined), for which the inhibition was inactive: -1.59%.

Regarding `C[C@H](NC(=O)OC(C)(C)C)C(=O)NCC1CCC(C(=O)O)CC1` (some centres undefined), the inhibition was inactive: -9.95%.

Regarding `COc1cccc(N2CC(O)=C(c3nc4ccccc4c(=O)[nH]3)C2=N)c1`, the inhibition was inactive: 13.7%.

`NC(N)=NC(=O)Cc1c(Cl)cccc1Cl`: the inhibition is inactive: -2.36%.

As to `CC/C(=C(\c1ccc(O)cc1)c1ccc(OCCN(C)C)cc1)c1ccccc1`, the inhibition is inactive: -3.93%.

For `NCCc1cnc[nH]1`, the inhibition was inactive: -1.98% and inactive: -10.4%.
